Results taken from PubChem BioAssay AID602310 (National Center for Advancing Translational Sciences (NCATS), 2012).
“And” between values parts separate entries of the source, which are not always exact repeats. Equal values may be shown once. Among all 410,000 compounds or so, about 310 (0.076%) were called active. Inconclusive means that the source gave no clear call. Such entries were picked first, then a sample of the others. The call rests on the fitted dose curve; in most records, active means well fitted curve in the direction sought with a large enough effect; inconclusive means small, poorly fitted or top-dose-only effect; inactive means flat fitted curve, though single readings scatter. Potencies beside an inconclusive call are fits to weak or partial responses and may not hold up.

molecular target: DNA dC->dU-editing enzyme APOBEC-3G (Homo sapiens) (UniProt Q9HC16); assay: qHTS for Inhibitors of Vif-A3G Interactions: qHTS; details: HeLa A3G-eYFP + Vif (tagged APOBEC3G with the HIV-1 protein that degrades it), YFP fluorescence, overnight; series mostly up to 46.1 µM; activity, negative = active: at the top concentration; further: nearly all actives have a fitted effect of over 60% in size;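 on activity, negative = active: hits raise eYFP signal because A3G escapes Vif-driven loss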
Summary of the method: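 Read-out is eYFP fluorescence (Ex 488/Em 500-530) from Vif-expressing HeLa A3G-eYFP cells; more signal means A3G escaped Vif-mediated degradation. Cells plated overnight, compound pinned in, incubated overnight at 37 deg C.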
On the % scale 0 is the no-effect control and ±100 the full control effect; potency means the concentration at half of the fitted maximal effect; tags describe the fitted curve by direction and shape.

Chain of UniProt Q9HC16 (Q9HC16 whole entry, looked up): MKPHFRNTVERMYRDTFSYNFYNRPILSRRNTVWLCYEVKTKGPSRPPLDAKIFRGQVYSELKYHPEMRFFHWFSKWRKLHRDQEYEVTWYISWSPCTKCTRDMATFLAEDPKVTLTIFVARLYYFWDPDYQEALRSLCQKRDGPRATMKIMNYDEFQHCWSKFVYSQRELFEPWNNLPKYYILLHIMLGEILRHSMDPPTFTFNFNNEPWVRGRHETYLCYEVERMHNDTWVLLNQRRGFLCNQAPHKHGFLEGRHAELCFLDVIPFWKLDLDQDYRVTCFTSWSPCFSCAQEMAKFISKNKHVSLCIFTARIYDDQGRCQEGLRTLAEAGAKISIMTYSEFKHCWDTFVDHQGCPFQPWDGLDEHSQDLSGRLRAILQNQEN

SMILES	activity, negative = active	Potency
COc1ccc(S(=O)(=O)N(CC(=O)Nc2ccc(C)cc2)c2ccc(C)cc2)cc1OC	inactive: -4.24%	
Cc1c(NC(=O)COC(=O)c2cc3c4ccccc4n(C)c3s2)c(=O)n(-c2ccccc2)n1C	inactive: 1.11%	
Cc1ccc2ccc3c(c2n1)NS(=O)(=O)c1ccccc1-3		inconclusive: 25.1 µM [inhibitor, single point]
Cc1ccc(C(=O)O/N=C(\N)c2ccccn2)c(Cl)c1	inactive: -9.14%	
Cc1cccc2cc3c(N)c(C(=O)N4CCc5ccccc54)sc3nc12		inconclusive: 3.16 µM [inhibitor, full curve, poor fit]
CCN(CC)c1ccc(NC(=O)c2ccc(Cl)nc2)cc1		inconclusive: 6.31 µM [inhibitor, full curve, poor fit]
OCC1OC(n2cnc3c(NCc4ccco4)ncnc32)C(O)C1O (centres undefined)		inconclusive: 17.8 µM [inhibitor, single point]
Cc1ccc(NC(=S)NC(=O)c2ccc(F)cc2)cc1S(=O)(=O)Nc1cccc(Cl)c1	inactive: -21.5%	
COC(=O)c1cc(S(=O)(=O)N(Cc2ccccc2)C(C)(C)C)c[nH]1		inconclusive: 7.08 µM [inhibitor, partial curve, poor fit]
COc1cc(C=C(c2nc3ccccc3s2)c2nc3ccccc3s2)cc(OC)c1O		inconclusive: 35.5 µM [inhibitor, partial curve, poor fit]
Cn1c(SCC(=O)NCc2cccs2)nnc1-c1ccc(O)cc1	inactive: -2.53%	
O=C1CC(c2ccccc2)Cc2nc3ncnn3cc21 (centres undefined)		inconclusive: 11.2 µM [inhibitor, partial curve, poor fit]
O=C(Oc1c(CN2CCOCC2)cc(Cl)c2cccnc12)c1cccs1		inconclusive: 35.5 µM [inhibitor, single point]
CCc1nnc(NC(=O)CSc2nnc(-c3ccccc3O)n2-c2ccc(C)cc2)s1		inconclusive: 3.98 µM [inhibitor, full curve]
NS(=O)(=O)c1ccc(CCNCc2ccccc2OCc2ccc(F)cc2)cc1	inactive: -0.879%	
O=c1[nH]c(=S)ccn1C1OC(CO)C(O)C1O (centres undefined)		inconclusive: 2.51 µM [inhibitor, partial curve, poor fit]
N/C(=N/OC(=O)c1ccccc1Cl)c1ncc([N+](=O)[O-])s1	inactive: 0.0705%	
COc1cc(-c2noc(C)c2C#Cc2nccn2C)cc(OC)c1OC		inconclusive: 5.62 µM [inhibitor, full curve] and inconclusive: 6.31 µM [inhibitor, partial curve, poor fit]
O=C(O)c1ccc(N/N=C/c2ccc(-c3ccc(Cl)cc3Cl)o2)cc1	inactive: -27.8%	
